The structures appear in SMILES notation. Screen size: about 39,000 compounds; about 220 (0.56%) showed activity. The list shows a part of the results.
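Further: static incubation at 37 °C against the wild-type strain, values averaged over two biological replicates.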

In the assay the test system is Escherichia coli K-12 BW25113. Kind of assay: relative growth (OD600 normalised to plate interquartile mean) (fraction); higher = less growth inhibition, active = 0.2 or less. The following applies: 50 µM; LB; incubation time: overnight (16-24 h).
Consider `C[C@@H]1CCCCO[C@H](CN(C)Cc2ccc3c(c2)OCO3)[C@@H](C)CN([C@H](C)CO)C(=O)c2cc(NC(=O)Nc3ccccc3)ccc2O1`, for which the relative growth is inactive: 1.01. With `C[C@@H]1CN(CC(=O)N2CC(C)(C)c3nc(CO)c(Cc4ccc(F)cc4)cc32)[C@@H](CN2CCOC[C@H]2C)CN1` the figure was inactive: 1; with `COc1cccc(S(=O)(=O)N[C@@H]2C=C[C@H](CC(=O)NC3CCC3)O[C@@H]2CO)c1`, inactive: 0.866.

Take `COc1ccc([Si](C)(C)[C@H]2[C@H](CCn3cc([C@H](O)c4ccccc4)nn3)O[C@@]3(C(=O)N(Cc4ccc(N5CCOC5=O)cc4)c4ccccc43)[C@@H]2C)cc1`: the relative growth is inactive: 1.

Consider `C[C@@H]1CN([C@@H](C)CO)C(=O)c2cc(NC(=O)Nc3ccccc3)ccc2O[C@H]1CN(C)S(=O)(=O)c1cn(C)cn1`, for which the relative growth is inactive: 0.971. Take `CCCNC(=O)N[C@@H]1CC[C@@H](CC(=O)N2CCN(C)CC2)O[C@H]1CO`: the relative growth was inactive: 0.977. `C[C@@H]1CN([C@H](C)CO)C(=O)Cc2cc(NC(=O)Nc3cccc4ccccc34)ccc2O[C@@H]1CN(C)Cc1ccc(C(=O)Nc2ccccc2N)cc1`: the relative growth is inactive: 1.02. With `Cc1c(N)nc([C@H](CC(N)=O)NC[C@H](N)C(N)=O)nc1C(=O)N[C@H](C(=O)N[C@H](C)[C@@H](O)[C@H](C)C(=O)N[C@H](C(=O)NCCc1nc(-c2nc(C(=O)NCCCNCCCCN)cs2)cs1)[C@@H](C)O)[C@@H](O[C@@H]1O[C@@H](CO)[C@@H](O)[C@H](O)[C@@H]1O[C@@H]1O[C@H](CO)[C@@H](O)[C@H](OC(N)=O)[C@@H]1O)c1c[nH]cn1` the figure was active: 0.0715; with `C[C@@H]1CCCCO[C@@H](CN(C)C(=O)Cc2ccccc2)[C@H](C)CN([C@@H](C)CO)C(=O)c2cc(NC(=O)Nc3ccc(C(F)(F)F)cc3)ccc2O1`, inactive: 1.02. Then `C[C@@H]1CN([C@@H](C)CO)C(=O)c2cc(-c3cccc(C#N)c3)cnc2O[C@H]1CN(C)C(=O)c1cnccn1`, with inactive: 1.02; and `O=C(C[C@@H]1C[C@@H]2c3cc(NS(=O)(=O)c4ccc(F)cc4)ccc3O[C@@H]2[C@H](CO)O1)NCC(F)(F)F`, with inactive: 1.01. For `NNC(=O)CCCCCC(=O)NO`, the relative growth is inactive: 1.04.

For the molecule `O=c1[nH]ncc2ccccc12`, the relative growth is inactive: 0.998. With `COc1ccc2c3c(n(c2c1)C)[C@@H](CO)N(C[C@]13CCN(CC1)C(=O)c1ccncc1)C(=O)c1cnccn1` the figure was inactive: 0.966; with `Cc1noc(C)c1NC(=O)N(C)C[C@H]1Oc2ccc(NS(=O)(=O)c3c(C)noc3C)cc2C(=O)N([C@@H](C)CO)C[C@H]1C`, inactive: 1.01; with `CCS(=O)(=O)N1CC[C@]2(CC1)CN([C@@H](CO)c1[nH]c3cc(ccc3c12)OC)S(=O)(=O)c1cn(cn1)C`, inactive: 1.03.

For the molecule `Cc1ccc(S(=O)(=O)N(C)C[C@H]2OCCCC[C@H](C)Oc3ccc(NC(=O)Nc4ccccc4)cc3C(=O)N([C@H](C)CO)C[C@@H]2C)cc1`, the relative growth is inactive: 1.07.

As for `CNc1nc(OCC#N)nc(N2CCCCC2)n1`, the relative growth was inactive: 1.02. Turning to `CCc1nc2ccc(C(=O)NC3CCN(Cc4ccccc4)CC3)cn2c1N(C)Cc1cc2ccccc2s1`, the relative growth was inactive: 0.99. For `COc1cccc(S(=O)(=O)N(C)C[C@@H]2Oc3cc(C4=CCCC4)ccc3S(=O)(=O)N([C@H](C)CO)C[C@H]2C)c1`, the relative growth was inactive: 1.04. In the case of `C[C@H](CO)N1C[C@H](C)[C@H](CN(C)S(=O)(=O)c2ccccc2)OCCCC[C@H](C)Oc2ccc(NS(C)(=O)=O)cc2C1=O`, the relative growth was inactive: 1.01. On to `CCCCC/C=C\C/C=C\CCCCCCCCCC(=O)O`, for which the relative growth was inactive: 0.989.

On to `C[C@H]1O[C@@H](O[C@H]2[C@@H](O)[C@@H](O)[C@@H](O[C@H]3CC[C@]4(C)[C@H]5CC=C6[C@H]7CC(C)(C)[C@H]8C[C@]7(C(=O)O8)[C@@H](O)C[C@]6(C)[C@@]5(C)CC[C@H]4C3(C)C)O[C@@H]2CO)[C@@H](O)[C@@H](O[C@H]2OC[C@@H](O)[C@@H](O)[C@@H]2O)[C@@H]1O`, for which the relative growth is inactive: 1.

For `C[C@@H]1CCCCO[C@H](CN(C)Cc2ccc(Cl)c(Cl)c2)[C@@H](C)CN([C@@H](C)CO)C(=O)c2cc(NS(C)(=O)=O)ccc2O1`, the relative growth was inactive: 0.996.

In the case of `C[C@H](CO)N1C[C@H](C)[C@H](CN(C)Cc2ccc(C(=O)Nc3ccccc3N)cc2)Oc2c(NC(=O)c3nc4ccccc4s3)cccc2C1=O`, the relative growth was inactive: 1.03.

For `C=c1cc(C)ccc1=C1NN=C(NC(=O)CC)O1`, the relative growth was inactive: 0.989. In the case of `CO[C@H]1CN(C)C(=O)c2cc(NS(=O)(=O)c3cn(C)cn3)ccc2OC[C@H](C)N(Cc2cccc(F)c2)C[C@H]1C`, the relative growth is inactive: 0.984.

As to `NCCONC(=O)[C@@H]1CC[C@@H]2CN1C(=O)N2OS(=O)(=O)O`, the relative growth was active: 0.0923. For `COc1ccc(CN2C[C@H](C)[C@@H](OC)CN(C)C(=O)c3cc(NC(=O)c4nc5ccccc5s4)ccc3OC[C@H]2C)cc1`, the relative growth is inactive: 1.01. Regarding `O=C(C[C@@H]1C[C@@H]2c3cc(NS(=O)(=O)c4ccc(F)cc4)ccc3O[C@@H]2[C@H](CO)O1)NCc1cccnc1`, the relative growth was inactive: 1.01. As to `C[C@H]1CN([C@@H](C)CO)C(=O)c2cc(C#Cc3ccccn3)cnc2O[C@H]1CN(C)C(=O)c1cnccn1`, the relative growth is inactive: 1. Regarding `COCC(=O)N1C[C@H](C)[C@H](OC)CN(C)C(=O)c2ccc(NC(=O)c3ccc(F)cc3)cc2OC[C@@H]1C`, the relative growth was inactive: 0.986. Consider `C[C@H](CO)N1C[C@H](C)[C@@H](CN(C)S(=O)(=O)c2ccc(F)cc2)Oc2ncc(-c3cccc(C(=O)N(C)C)c3)cc2C1=O`, for which the relative growth is inactive: 0.967. Take `C[C@H]1CN([C@@H](C)CO)C(=O)Cc2cc(NS(C)(=O)=O)ccc2O[C@@H]1CN(C)C(=O)Nc1ccc(C(F)(F)F)cc1`: the relative growth is inactive: 0.952.

For `CN(C)CC(=O)N[C@H]1C=C[C@@H](CC(=O)NCCN2CCCCC2)O[C@@H]1CO`, the relative growth is inactive: 0.986. `CC(C)NC(=O)N(C)C[C@@H]1Oc2ccc(NC(=O)CCN3CCOCC3)cc2C(=O)N([C@@H](C)CO)C[C@H]1C`: the relative growth was inactive: 0.996. Then `CCCn1cnnc1[C@@H](C)N`, with inactive: 1.01; and `Cc1noc(C)c1NC(=O)Nc1ccc2c(c1)C(=O)N([C@@H](C)CO)C[C@H](C)[C@H](CN(C)Cc1ccc(Cl)c(Cl)c1)O2`, with inactive: 0.996; and `COCC#Cc1ccc2c(c1)O[C@@H](CN(C)S(=O)(=O)c1ccc(C)cc1)[C@@H](C)CN([C@H](C)CO)S2(=O)=O`, with inactive: 1.02.

`C/C=C/c1cnc2c(c1)C(=O)N([C@@H](C)CO)C[C@H](C)[C@@H](CN(C)S(=O)(=O)c1ccc(OC)cc1)O2`: the relative growth was inactive: 1.03. With `COc1ccc(S(=O)(=O)N(C)C[C@H]2Oc3ccc(NC(=O)Nc4c(C)noc4C)cc3CC(=O)N([C@H](C)CO)C[C@H]2C)cc1` the figure was inactive: 1.02; with `C[C@@H]1CN([C@H](C)CO)C(=O)c2cccc(NC(=O)Nc3ccccc3)c2O[C@H]1CN(C)Cc1ccc(C(=O)Nc2ccccc2N)cc1`, inactive: 0.957; with `CC(C)C[C@@H]1NC(=O)[C@H]2C[C@@H](C(=O)NCCCCCC[N+](C)(C)C)[C@@H](c3cccc(OCCO)c3)N2C1=O`, inactive: 0.998.

For the molecule `CCc1ccc(/C=C2\SC(=O)N(CCCCCCNC(=O)c3ccc(Nc4ccc([N+](=O)[O-])c5nonc45)cc3)C2=O)cc1`, the relative growth was inactive: 1.05. Consider `COc1ccc(CNC(=O)C[C@H]2C[C@H]3c4cc(NC(=O)NC5CCCC5)ccc4O[C@H]3[C@H](CO)O2)cc1`, for which the relative growth is inactive: 0.99. Regarding `C[C@@H]1CN([C@H](C)CO)C(=O)c2cc(NC(=O)Nc3ccc(C(F)(F)F)cc3)ccc2O[C@@H]1CN(C)Cc1ccc(Oc2ccccc2)cc1`, the relative growth is inactive: 0.993. Then `COc1cccc(S(=O)(=O)Nc2ccc3c(c2)OC[C@@H](C)N(C(=O)Cc2cccnc2)C[C@@H](C)[C@H](OC)CN(C)C3=O)c1`, with inactive: 1.01; and `COc1ccccc1CNC(=O)C[C@@H]1C[C@@H]2c3cc(NC(=O)c4cccnc4)ccc3O[C@@H]2[C@@H](CO)O1`, with inactive: 0.941.

On to `Cc1noc(C)c1NC(=O)Nc1ccc2c(c1)C(=O)N([C@H](C)CO)C[C@@H](C)[C@@H](CN(C)S(=O)(=O)c1c(C)noc1C)O2`, for which the relative growth is inactive: 1.01. `C[C@H]1CN([C@@H](C)CO)C(=O)c2cc(NC(=O)Nc3ccccc3)ccc2O[C@@H]1CN(C)C(=O)Nc1cccc2ccccc12`: the relative growth was inactive: 0.969. Then `c1ccc(Cn2c(-c3ccc(OC[C@H](C4CCNCC4)n4c(-c5ccccc5)nc5ccccc54)cc3)nc3ccccc32)cc1`, with inactive: 0.723; and `C[C@@H]1CN([C@H](C)CO)C(=O)c2cc(NC(=O)CCC(F)(F)F)ccc2O[C@@H]1CN(C)Cc1ccc(C(F)(F)F)cc1`, with inactive: 0.977. Turning to `C[C@H](CO)N1C[C@H](C)[C@H](CN(C)Cc2ccc(-c3ccccc3)cc2)Oc2ccc(NC(=O)Nc3ccccc3)cc2C1=O`, the relative growth was inactive: 0.991. Take `Cc1ccc(S(=O)(=O)N(C)C[C@@H]2Oc3ccc(NS(=O)(=O)c4ccccc4)cc3C(=O)N([C@H](C)CO)C[C@@H]2C)cc1`: the relative growth was inactive: 1.01. As for `CCn1c(C)cn2c3c(=O)n(CCN4CCOCC4)c(=O)n(C)c3nc12`, the relative growth is inactive: 1.02. With `C[C@H](CO)N1C[C@H](C)[C@H](CN(C)CC2CCOCC2)Oc2cc(C#Cc3ccccc3F)ccc2S1(=O)=O`, the relative growth is inactive: 1.01. On to `Cc1noc(C)c1S(=O)(=O)Nc1cccc2c1O[C@H](CN(C)S(=O)(=O)c1ccccc1)[C@H](C)CN([C@@H](C)CO)C2=O`, for which the relative growth is inactive: 1.02.

These data come from the supplement of paper PMC9446081.
